Source: US20170198196A1, “METHODS FOR CONTROLLING SOURING IN ENGINEERED SYSTEMS” (The Regents of the University of California, priority 2014, published 2017)

How the values were obtained:
[1] = test system: Desulfovibrio alaskensis G20; assay: microbe, parasite or virus in culture; conditions: Oleidesulfovibrio alaskensis, G20, read-out: IC50 against growth of Desulfovibrio alaskensis G20
[2] = test system: Desulfovibrio alaskensis G20; conditions: cultures of Desulfovibrio alaskensis G20

IC50 [1]: < 1000 µM | IC50 values (in terms of growth inhibition), in words [2]: sub-millimolar
Compound: [O-][I+3]([O-])([O-])O [periodate]
